Here are results for one molecule from patent US20250388684A1 (published 2025).

The target of assay [1] is T1, human CCR8 (C-C chemokine receptor type 8) (human, UniProt P51685 1-355). Briefly: FACS cell binding; Control.
For assay [2], the target named is T1, human CCR8 (C-C chemokine receptor type …). Description: FACS cell binding; human plasma 37°C 7 Day.
Assay [3] shares this target. Description: FACS cell binding; human plasma 37°C 14 Day.

T1 sequence (P51685 whole entry): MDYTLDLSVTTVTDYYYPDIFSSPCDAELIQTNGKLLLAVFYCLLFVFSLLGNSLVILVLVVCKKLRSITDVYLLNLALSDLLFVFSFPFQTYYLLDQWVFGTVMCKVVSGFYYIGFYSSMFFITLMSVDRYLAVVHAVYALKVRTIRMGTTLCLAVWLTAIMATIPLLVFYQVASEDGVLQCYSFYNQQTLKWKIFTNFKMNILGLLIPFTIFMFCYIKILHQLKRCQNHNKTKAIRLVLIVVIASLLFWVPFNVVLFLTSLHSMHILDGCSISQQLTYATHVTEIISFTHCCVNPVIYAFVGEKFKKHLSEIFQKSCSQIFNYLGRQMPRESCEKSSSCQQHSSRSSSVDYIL

B1: 13F3H6-hz (humanized anti-human CCR8 monoclonal antibody, human IgG1) (antibody)
heavy: EVQLVESGGGLVQPGESLRLSCAASGFTFNAYAMNWVRQAPGQGLEWVARIRTKSNNYATYYADSVKGRFTISRDDSKNTLYLEMNSLRAEDTAVYYCVRHKKVREGYAMDYWGQGTLVTVSS[left out - human IgG1 constant region]
light: DIVLTQSPASLVLSLGQRATISCRASKSVSTSGYTYMHWYQQKPGQPPKLLIYLASNLESGVPARFSGSGSGTDFTLNIHPVEEEDAATYYCQHSRELPFTFGSGTKLEIKRTVAAPSVFIFPPSDEQLKSGTASVVCLLNNFYPREAKVQWKVDNALQSGNSQESVTEQDSKDSTYSLSSTLTLSKADYEKHKVYACEVTHQGLSSPVTKSFNRGEC
For orientation: EC50 means the concentration needed to bring the measured effect to its halfway point. Low readings indicate an effect from little substance, high ones a need for much substance. As for B1, the EC50 was 0.0367 µg/mL in assay [1], 0.0426 µg/mL in assay [2] and 0.0424 µg/mL in assay [3].
